Source: patent US8263079B2, “Antibodies against CSF-1R” (ImClone, LLC, priority 2010, dated 2012)

Key:
NKM-1 leukemia cells [1] = assay: Survival of NKM-1 human leukemia-bearing mice; format: in vivo, mouse; details: Human IgG control 35 days, P<0.0001
Method: Irradiate Nu/nu mice sublethally with 200 rads/mouse 24 hours before intravenous injection with 2.5×10^6 NKM-1 leukemia cells. […] Monitor mice daily for survival. Determine P values by log rank Mantel Cox test.

monocytes [2] = assay: Macrophage differentiation by IL-34; format: cell-based
Method: (§1) Seed monocytes (Lonza) at a density of 4×10^5 cells/mL in each chamber of an 8-chamber slide in 900 μL Roswell Park Memorial Institute (RPMI) 1640 media containing 10% FBS and 100 ng/mL hIL-34. […] Incubate at 37° C., changing media every three days until monocytes are visibly seen to adhere to the plate and elongate, which is characteristic of macrophage differentiation.

monocytes [3] = assay: Monocyte proliferation by CSF-1 (CellTiter Glo); format: cell-based; details: 100 ng/mL CSF-1
Method: (§2) Seed monocytes (Lonza) at a density of 3000 cells/well in a 96-well plate in the presence of RPMI 1640 media containing 10% FBS and 100 ng/mL CSF-1. […] Exchange media for fresh media containing 10% FBS, 100 ng/mL CSF-1, and antibody three days later and allow cells to grow an additional 5 days. Upon addition of 100 μL of CellTiter Glo Luminescent buffer and substrate (Promega), shake cells for 10 minutes and read luminescence as an indicator of viability.

NKM-1 leukemia cells [4] = assay: Proliferation assay for tumor cell line with CSF-1; format: cell-based, human; details: 20 ng/mL CSF-1, 3 days
Method: Seed NKM-1 leukemia cells at 1×10^4 cells/mL in 100 μL RPMI 1640 media containing 1% FBS in a 96 well plate overnight. […] Incubate for an additional 3 days at 37° C. Upon addition of 100 μL of CellTiter Glo Luminecent buffer and substrate (Promega), shake cells for 10 minutes before reading luminescence (as an indicator of viability).

monocytes [5] = assay: Macrophage differentiation by CSF-1; format: cell-based
Method: as §1, with “hCSF-1.” for “hIL-34.”

[6] = test system: NKM-1 human leukemia cells; assay: Antibody-dependent cell-mediated cytotoxicity (ADCC) with human NK cells; format: cell-based; details: antibody concentration 1 μg/mL, 4 hours
Method: NKM-1 human leukemia cells are seeded at 2×10^5 cells/mL in 25 μL RPMI media containing 10% Ultra-Low IgG FBS and 3 ng/mL of human IL-2 in a 96 well plate. […] After a 15 minute incubation, seed 25 μL of 3×10^6 cells/mL human NK cells (Lonza) and incubate for an additional four hours at 37° C. Add 10 μL of Lysis Buffer from aCella-TOX kit (Cell Technology) and bring to RT for 15 minutes. Add 125 μL of low IgG FBS and centrifuge plates for 1 minute at 750×g. In Optiplates (Perkin Elmer), add 50 μL Enzyme Assay Diluent from aCella-TOX kit and carefully transfer 50 μL of cell supernatant to Optiplates. Prepare enzyme assay reagent and detection reagent according to kit instructions, adding 100 μL enzyme assay reagent immediately followed by 50 μL of detection reagent to Optiplates. Read plates in luminometer 20 minutes after reagents are added.

Akt and MAPK = assay: Phosphorylation of downstream Akt and MAPK by Western blot in NIH3T3 cells stably transfected with CSF-1R; format: cell-based; details: cells incubated with 100 nM to 1 nM antibody; CSF-1 or IL-34 pathway
Method: Seed NIH3T3 cells stably transfected with CSF-1R cells in a 12-well plate at a density of 5×10^5 cells/well in 1 mL well of Dulbecco's Modified Eagles Medium (DMEM) containing 10% fetal bovine serum (FBS) and 1 mg/mL geneticin for 5 hours. Wash monolayers twice in PBS and culture overnight in 0.9 mL/well DMEM with 1% FBS. […] Stimulate cells with 100 ng/mL CSF-1 or IL-34 ligand for 10 minutes and then place on ice and wash with ice-cold PBS. Lyse the cells in 100 μL of 50 mM Hepes (pH 7.5 150 mM NaCl, 0.5% Triton X-100, 1 mM Na3VO4, 10 mM NaPPi, 50 mM NaF) and tablet of protease inhibitors (Roche) on ice for 10 minutes. Clarify the lysed cells by centrifugation at 4° C. Load 20 μL lysate on a denaturing electrophoresis gel and blot onto a nitrocellulose membrane. Detect tyrosine-phosphorylated CSF-1R on the blot by using an anti-phosphoCSF-1R antibody at 1 μg/mL (Cell Signaling). Determine CSF-1R signaling by probing the blot with either anti-phospho-MAPK (1:500 dilution) or anti-phopho-Akt (1:1000) (Cell Signaling). To insure equal loading of the lanes, probe blots with anti-CSF-1R antibodies (1 μg/mL; R&D Systems) or anti-actin antibodies (1:2000; Sigma). Incubate all primary antibodies with rocking for 1 hour at RT; followed by the corresponding secondary antibody conjugated with HRP, also with rocking for 1 hour at RT. Visualize bands with a chemiluminescence reagent (GE Healthcare).

monocytes [7] = assay: Monocyte proliferation by IL-34 (CellTiter Glo); format: cell-based; details: read-out: IC50 inhibiting 50% of monocyte growth; 100 ng/mL IL-34
Method: as §2, with “IL-34.” for “CSF-1.”, “IL-34,” for “CSF-1,”, “Luminecent” for “Luminescent”

B1: Antibody 1: fully human IgG1 antibody recognizing human CSF-1R; heavy chain SEQ ID NO:9, light chain SEQ ID NO:10 (antibody)
heavy: QDQLVESGGGVVQPGRSLRLSCAASGFTFSSYGMHWVRQAPGEGLEWVAVIWYDGSNKYYADSVKGRFTISRDNSKNTLYLQMNSLRAEDTAVYYCARGDYEVDYGMDVWGQGTTVTVASASTKGPSVFPLAPSSKSTSGGTAALGCLVKDYFPEPVTVSWNSGALTSGVHTFPAVLQSSGLYSLSSVVTVPSSSLGTQTYICNVNHKPSNTKVDKRV[human IgG1 Fc skipped]
light: AIQLTQSPSSLSASVGDRVTITCRASQGISNALAWYQQKPGKAPKLLIYDASSLESGVPSRFSGSGSGTDFTLTISSLQPEDFATYYCQQFNSYPWTFGQGTKVEIKRTVAAPSVFIFPPSDEQLKSGTASVVCLLNNFYPREAKVQWKVDNALQSGNSQESVTEQDSKDSTYSLSSTLTLSKADYEKHKVYACEVTHQGLSSPVTKSFNRGEC
With B1 the “Median survival” value (NKM-1 leukemia cells [1]; 5 mg/kg twice weekly) was 55 days, the “Median survival” value (NKM-1 leukemia cells [1]; 20 mg/kg twice weekly) was 46 days and the “Median survival” value (NKM-1 leukemia cells [1]; 60 mg/kg twice weekly) was 46 days. The IC50 (monocytes [2]; 100 ng/mL hIL-34, read-out: IC50, IL-34 induction of monocyte to macrophage differentiation) was 0.3 nM, the “concentration at which monocytes fail to differentiate into macrophages” value (monocytes [2]; in the presence of IL-34) was no less than 2 nM and the IC50 (monocytes [3]; read-out: IC50 inhibiting 50% of monocyte growth, reported as) was 0.1 nM. For the same molecule, the IC50 (monocytes [3]; read-out: IC50 inhibiting 50% of monocyte growth) was 0.14 nM, the IC50 (NKM-1 leukemia cells [4]; read-out: IC50 for NKM-1 growth) was 0.076 nM and the IC50 (NKM-1 leukemia cells [4]; read-out: IC50 for NKM-1 growth, reported as) was 0.07 nM. The IC50 (monocytes [5]; 100 ng/mL hCSF-1, read-out: IC50, CSF-1 induction of monocyte to macrophage differentiation) was 0.25 nM, the “concentration at which monocytes fail to differentiate into macrophages” value (monocytes [5]; in the presence of CSF-1) was no less than 2 nM and the “NKM-1 cells killed (ADCC)” value [6] was 9%. The “Akt and MAPK phosphorylation” value (Akt and MAPK) was “decreased phosphorylation levels” and the IC50 (monocytes [7]) was 0.5 nM.

Like-named read-outs stand apart in the source and are kept apart here.
